{"source": "the supplement of paper PMC11417369", "note": "± gives the standard deviation of the averaged measurements. This is one part of the list."}
{"system": "PfAP2-G AP2 domain (GST-tagged)", "experiment": "gcPBM binding intensity (ln(normalized median fluorescence intensity)); higher = stronger DNA binding", "procedure,_shortened": "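Binding intensity is defined as the maximum Masliner-normalised natural-log median intensity across replicate spots for either probe orientation. It was measured on an Agilent 4 × 180k array of primer-extended double-stranded 36-bp intergenic genomic probes and negative controls, to which GST-tagged P. falciparum DNA-binding domains made in E. coli were applied for 1 h in 1× PBS with 1% milk, 0.2 mg/ml BSA, 0.5% salmon testes DNA and 0.03% Triton X-100. Detection was by Alexa488 anti-GST antibody and scanning at 488 nm.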"}
{"sequence": "AAACATTTATACAAAGCACACAATTTTTAACTTTTA [CACACA_site2627]", "gcPBM binding intensity (ln)": "9.925 ± 0.007"}
{"sequence": "TTTAAGCAAAGACACACACACATATTTATATTTATA [CACACA_site6295]", "gcPBM binding intensity (ln)": "9.99 ± 0.071"}
{"sequence": "AATAAAAAAAAAAAAAAAAAAAAAAACCTGAGGAGT [CACACA_negctrl_site1140]", "gcPBM binding intensity (ln)": "9.8 ± 0.18"}
{"sequence": "AACCTTTTAAGAGTTGCACACGTACAAAAAAAAAAA [CACACA_site9159]", "gcPBM binding intensity (ln)": "11.3 ± 0.91"}
{"sequence": "TTCATAGAATTATATATTTTAAAAAAAAAAATAATT [CACACA_negctrl_site175]", "gcPBM binding intensity (ln)": "9.52 ± 0.12"}
{"sequence": "TTTTTTATAGGACATGCATGTTGTAGAGCTGTATAT [TGCATGCA_site704]", "gcPBM binding intensity (ln)": "10.4 ± 0.34"}
{"sequence": "TAATATGCATAAAATTGTACAAACTTACATATAATA [XGTACX_site2752]", "gcPBM binding intensity (ln)": "10.9 ± 0.29"}
{"sequence": "TTTTCTTGACCTATTATTCTTCTCATAGTATAATAT [GTGCAC_negctrl_site641]", "gcPBM binding intensity (ln)": "10.1 ± 0.26"}
{"sequence": "TAATAAATAAAATAGAGTACAGGGATTTCATTAAAT [XGTACX_site8979]", "gcPBM binding intensity (ln)": "11.4 ± 0.82"}
{"sequence": "TATATTACTTATATTTGTACACAGAAATATAAATCA [XGTACX_site13]", "gcPBM binding intensity (ln)": "11.3 ± 0.87"}
{"sequence": "TTTTTCATAAGAAGCACACAAAAAATGATAGAGAAT [CACACA_site1417]", "gcPBM binding intensity (ln)": "10.5 ± 0.35"}
{"sequence": "TGTCAAAATATGTATACACACAATTTTTTTTTTTTT [CACACA_site2465]", "gcPBM binding intensity (ln)": "9.81 ± 0.22"}
{"sequence": "ATTCATTTACCAATGGTGCAATATATTTTTATAATG", "gcPBM binding intensity (ln)": "10.2 ± 0.18"}
{"sequence": "AAAGAAAGTACCTTCACACATATAAGAATATAATAT [CACACA_site5214]", "gcPBM binding intensity (ln)": "10.8 ± 0.68"}
{"sequence": "AAAAAAAAAATATATTGTACAAATAGATATGTCAAT [XGTACX_site122]", "gcPBM binding intensity (ln)": "10.7 ± 0.3"}
{"sequence": "TGAAATACGAATTATTGTACTTATGTGTAAGATGGC [XGTACX_site4472]", "gcPBM binding intensity (ln)": "11.3 ± 0.81"}
{"sequence": "AAACAAATATGTAGCACACATTCACATAATATATTT [CACACA_site2335]", "gcPBM binding intensity (ln)": "10.2 ± 0.18"}
{"sequence": "TTATTTATGTGTAGGGCATGCAATCGTGTTTTTAAA [TGCATGCA_site735]", "gcPBM binding intensity (ln)": "10.3 ± 0.3"}
{"sequence": "GTATTTATAATACGGCGTACATAAAAAAAAAAAAAA [XGTACX_site3705]", "gcPBM binding intensity (ln)": "11.6 ± 1"}
{"sequence": "AATATATTTTAATATACACACATATATGCTCTTTAA [CACACA_site9371]", "gcPBM binding intensity (ln)": "9.95 ± 0.12"}
{"sequence": "TTATTTTTTTTGTGTTGTACAATTTATTACTACTAA [XGTACX_site346]", "gcPBM binding intensity (ln)": "11.3 ± 0.82"}
{"sequence": "AGAAAAAAATAATGTACACACACATAGATGTTTATA [CACACA_site4271]", "gcPBM binding intensity (ln)": "11.3 ± 0.73"}
{"sequence": "TCAATAATAACAAATGAACACACATATATATGAGCA [CACACA_site8663]", "gcPBM binding intensity (ln)": "9.795 ± 0.007"}
{"sequence": "TTTTTTTTTTAATTAACACACATAAATATATATATA [CACACA_site3275]", "gcPBM binding intensity (ln)": "9.93 ± 0.45"}
{"sequence": "GAACAATAAATAAAAAAAATAAAAATAAAAATAAAA [TGCATGCA_negctrl_site35]", "gcPBM binding intensity (ln)": 9.58}
{"sequence": "ATAAGTAAATTAGATACACACATGATATCATACATA [CACACA_site1623]", "gcPBM binding intensity (ln)": "9.97 ± 0.028"}
{"sequence": "AAAAAAAAAAAAAAAAGTACACAGTAGAATTAAATG [XGTACX_site1843]", "gcPBM binding intensity (ln)": "11.7 ± 0.92"}
{"sequence": "ATAAATTTTTTTTTTTTTTTTTTTCTTTTTCTTTGT [CACACA_negctrl_site1231]", "gcPBM binding intensity (ln)": "9.42 ± 0.099"}
{"sequence": "CATCTCATATTTTGAAGTACTAAGAAAAGATATAAA [XGTACX_site6867]", "gcPBM binding intensity (ln)": "11.2 ± 0.64"}
{"sequence": "AATATATTTGTGTATGTGCGCAGTGTGTAATTTATT [GTGCAC_site9765]", "gcPBM binding intensity (ln)": "10.5 ± 0.28"}
{"sequence": "ATATATACCTAAGACACACACATATATATATATATA [CACACA_site764]", "gcPBM binding intensity (ln)": "10.2 ± 0.2"}
{"sequence": "AAATGTACAGGACGCACACACATATATATATATATA [CACACA_site3674]", "gcPBM binding intensity (ln)": "11.2 ± 0.87"}
{"sequence": "AAGGAAAATATTAACTGTACATATAAAATATATATA [XGTACX_site5310]", "gcPBM binding intensity (ln)": "11.2 ± 0.67"}
{"sequence": "TATCATTTATATATGTGTACTTATTTATTTATTTAT [XGTACX_site7961]", "gcPBM binding intensity (ln)": "11.5 ± 0.8"}
{"sequence": "TCTTTATCCTTTCTCTTTTTATTAATTATAATATTC [TGCATGCA_negctrl_site584]", "gcPBM binding intensity (ln)": "9.985 ± 0.049"}
{"sequence": "ATTATTTGTAATATAACACACACAAAAAAAGACTCG [CACACA_site8487]", "gcPBM binding intensity (ln)": "10.3 ± 0.23"}
{"sequence": "ATTATACCGTATTTTGCATGTAGTATTTTCATTTTA [TGCATGCA_site1021]", "gcPBM binding intensity (ln)": "10.3 ± 0.11"}
{"sequence": "ATTAATTATGTATTTCAACAAAGAAGTGTTATATAT [GTGCAC_negctrl_site215]", "gcPBM binding intensity (ln)": "10.1 ± 0.16"}
{"sequence": "AAAGAAAATTAAAAAGAACACACAAATATATATATA [CACACA_site9196]", "gcPBM binding intensity (ln)": "9.98 ± 0.46"}
{"sequence": "AATGAATCCTTATATACACACATTATTATAGTATAG [CACACA_site7454]", "gcPBM binding intensity (ln)": "9.95 ± 0.042"}
{"sequence": "ATTTATATATATTTATGTACGTATTAATTTTTTTTT [XGTACX_site3877]", "gcPBM binding intensity (ln)": "11.5 ± 0.88"}
{"sequence": "ATGTATAATATTTTCACACACAAGAAAAAAGAAAAG [CACACA_site3591]", "gcPBM binding intensity (ln)": "10.2 ± 0.18"}
{"sequence": "TTTTATTTATTCCTACTTTTTTATTTATTTATTTAA [XGTACX_negctrl_site415]", "gcPBM binding intensity (ln)": "9.79 ± 0.071"}
{"sequence": "ACATTATGTCATAAATGTACACATACATATACATAC [XGTACX_site8998]", "gcPBM binding intensity (ln)": "11.2 ± 0.79"}
